# Test results from PubChem BioAssay (NCATS).
# This list was built around the results that the source calls inconclusive (neither active nor inactive); the mix of calls is not that of the screen. For part of these data: A potency beside an inconclusive call is a rough fit, not a confirmed value. Calls of active or inactive are those of the source. Unless noted, calls come from the whole dose curve; as a rule, active = well fitted curve in the direction sought with a large enough effect; inconclusive = small, poorly fitted or top-dose-only effect, or another doubt; inactive = no such curve, though single readings can be large; an effect the other way counts as inactive or inconclusive.
# Tests used:
# [1] = molecular target: 3',5'-cyclic-AMP phosphodiesterase 4B (Homo sapiens) (UniProt Q07343); test: qHTS Assay for Inhibitors of PDE-IV (AID 607; active = well fitted activation curve with a large enough effect in the main read-out, with a control signal flat, not every such curve was filed as active; inconclusive = small, poorly fitted or top-dose-only effect, or effect the other way, or a change in a side signal; note: potency is the fitted concentration of half-maximal effect); conditions: HEK293 ACTOne CNG channel cells, membrane potential fluorescence; series mostly up to 22.9 µM
# Procedure, shortened: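 HEK293 ACTOne cells with CNG channel (1000/well), endogenous PDE4; membrane potential dye, compounds up to 22.9 uM final. Fluorescence Ex 535/Em 590; RO 20-1724 (100 uM final) as reference.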
# [2] = qHTS Assay for Identification of Small Molecule Agonists for Hypoxia Response Element Signaling Pathway (AID 914; active = well fitted activation curve with a large enough effect in the signal ratio, with a control signal flat, not every such curve was filed as active; inconclusive = small, poorly fitted or top-dose-only effect, or effect the other way, or a change in a side signal; the % refers to the signal ratio; note: potency is the fitted concentration of half-maximal effect); conditions: ME-180 (cervical carcinoma) HRE-bla reporter, beta-lactamase ratio, CoCl2, 17 h; activation: active compounds read high
# Procedure, shortened: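 HRE-bla ME-180 cells, overnight plating in Opti-MEM with 0.5% dialyzed FBS; cpd titration + EC50 CoCl2, 17 h, 37 degrees Celsius; CCF4 2.5 h RT; 460/530 nm ratio; AC50.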
# [3] = molecular target: Dual specificity protein kinase CLK4 (Homo sapiens) (UniProt Q9HAZ1); test: qHTS Assay for Inhibitors of CDC-like Kinase 4 (ADP-Glo Assay) (AID 1771); note: potency is the fitted concentration of half-maximal effect; nearly all actives have a fitted effect of over 70% in size
# Procedure, shortened: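 Luminescence from ADP-Glo reports ADP produced by 25 nM Clk4 acting on 100 uM RS repeat peptide with 1 uM ATP over 1 hr at room temperature; residual ATP is depleted before ADP is converted to ATP for detection.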
# [4] = molecular target: Nuclear receptor subfamily 1 group I member 3 (Homo sapiens) (UniProt Q14994); test: Primary qHTS for agonist of constitutive androstane receptor (CAR) against the NCATS DSHEA and TCM libraries (AID 1794839); note: potency is the fitted concentration of half-maximal effect;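 for activation: HepG2 cells expressing human CAR with a CYP2B6 reporter plus PK11195 antagonist; luciferase reporter luminescence read with ONE-Glo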
# Procedure, shortened: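 qHTS, agonist mode: HepG2-CYP2B6-hCAR, 2,500 cells/well, 5 h attach; cpds + PK11195 0.75 µM final; 24 h, 37 °C, 5% CO2. Readouts: CellTiter-Fluor (405/540 nm), then ONE-Glo luminescence.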
# [5] = HepG2 viability counterscreen (readout 1: protease activity) against the NCATS DSHEA and TCM libraries (AID 1794841);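 note: cells exposed to compounds for about 24 h before the protease read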
# Procedure, shortened: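 Same wells read twice: first fluorescence from cleaved GF-AFC substrate (25 uM final, 30 min, 37C) for live-cell protease, then CellTiter-Glo luminescence after 30 min at room temperature for ATP. HepG2 cells were exposed ~24 h to substances.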
# [6] = molecular target: Cytochrome P450 2C19 (Homo sapiens) (UniProt P33261); test: qHTS for inhibitors of CYP2C19 against the NCATS DSHEA and TCM libraries (AID 1919974);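 note: luminescence from luciferin released by CYP2C19 oxidation of a pro-luciferin substrate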
# Procedure, shortened: (§1)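 Read-out is luminescence after P450-Glo detection (30 min, RT). Before that: 15 min compound–enzyme preincubation, then 30-45 min reaction with 1x NADPH regeneration solution, substrate concentration isoform-specific.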
# [7] = Viability counterscreen for agonist of constitutive androstane receptor (CAR) against the NCATS DSHEA and TCM libraries (AID 1794838);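 note: HepG2 cells with CYP2B6 reporter and hCAR plus 0.75 µM PK11195 antagonist; potency is the fitted concentration of half-maximal effect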
# Procedure, shortened: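 Cell health was measured as CellTiter-Fluor signal in HepG2-CYP2B6-hCAR cells treated for 24 h with substances alongside the hCAR antagonist PK11195 (0.75 uM final).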
# [8] = molecular target: Nuclear receptor subfamily 1 group I member 2 (Homo sapiens) (UniProt O75469); test: Dual reporter qHTS for agonist of Pregnane X Receptor (hPXR) against the NCATS DSHEA and TCM libraries: Luminescence readout (AID 1920059)
# Procedure, shortened: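 hPXR-LucHepG2 cells in phenol red-free DMEM with 5% charcoal-stripped FBS, 2000 cells/well, attached 5 h, then exposed 24 h at 37C to compounds; rifampicin as positive agonist control (2.8 nM–92 uM). Luciferase luminescence read.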
# [9] = Viability counterscreen for antagonist of constitutive androstane receptor (CAR) against the NCATS DSHEA and TCM libraries (AID 1794837);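 note: compound exposure lasted 24 h before viability reading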
# Procedure, shortened: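 Cells: HepG2 line carrying CYP2B6 reporter and hCAR, seeded and attached 5 h. Then pin-transferred test substances plus agonist CITCO at 48 uM final; 24 h incubation; fluorogenic viability reagent, 1 h.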
# [10] = molecular target: Phospholipid hydroperoxide glutathione peroxidase GPX4 (Homo sapiens) (UniProt P36969); test: Primary qHTS Assay for Inhibitors of Recombinant Selenoprotein Glutathione Peroxidase 4 (GPX4) (AID 1845192); note: potency is the fitted concentration of half-maximal effect; nearly all actives have a fitted effect of over 65% in size
# Procedure, shortened: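 GR-coupled readout: 100 nM GR, 1 mM GSH, 0.5 mM NADPH; NADPH fluorescence (ex 340/em 450 nm) read at t=0 and after 15 min RT. GPX4 200 nM, preincubated 30 min with compound; substrate 0.5 mM CHP.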
# [11] = molecular target: Cytochrome P450 2C9 (Homo sapiens) (UniProt P11712); test: qHTS for inhibitors of CYP2C9 against the NCATS DSHEA and TCM libraries (AID 1919973); note: potency is the fitted concentration of half-maximal effect
# Procedure, shortened: as §1
# [12] = molecular target: Cytochrome P450 1A2 (Homo sapiens) (UniProt P05177); test: qHTS for inhibitors of CYPIA2 against the NCATS DSHEA and TCM libraries (AID 1919976); note: potency is the fitted concentration of half-maximal effect
# Procedure, shortened: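 CYP1A2 + luciferin substrate, 100 mM KPO4-type buffer; cmpd 15 min RT; 1x NADPH regen, 30-45 min RT dark; detection reagent 30 min RT; luminescence. Minus-enzyme wells as background; furafylline intraplate control.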
# [13] = KB-8-5-11 P-gp reporter qHTS against the NCATS DSHEA and TCM libraries (AID 1919977); note: potency is the fitted concentration of half-maximal effect
# Procedure, shortened: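 KB-8-5-11, 500 cells/well, DMEM/10% FBS without colchicine; 4 h attach; cpd titrations, 72 h, 37C/5% CO2; CellTiter-Glo, 30 min RT, luminescence.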
# Tags give direction and shape of the fitted curve or compound fluorescence and quenching.
# Sequence of UniProt Q14994 (Q14994 whole entry, looked up): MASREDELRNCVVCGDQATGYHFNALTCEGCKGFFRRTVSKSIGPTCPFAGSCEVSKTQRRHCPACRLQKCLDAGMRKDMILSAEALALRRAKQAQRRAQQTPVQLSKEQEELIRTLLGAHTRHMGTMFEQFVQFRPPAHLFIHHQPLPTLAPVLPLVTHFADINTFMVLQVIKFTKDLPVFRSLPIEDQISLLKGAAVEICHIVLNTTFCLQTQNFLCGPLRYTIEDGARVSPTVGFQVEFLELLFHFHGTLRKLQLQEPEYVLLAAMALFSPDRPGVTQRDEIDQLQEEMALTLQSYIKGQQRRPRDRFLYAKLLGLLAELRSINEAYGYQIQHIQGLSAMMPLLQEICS
# Sequence of UniProt Q07343 (Q07343 whole entry, looked up): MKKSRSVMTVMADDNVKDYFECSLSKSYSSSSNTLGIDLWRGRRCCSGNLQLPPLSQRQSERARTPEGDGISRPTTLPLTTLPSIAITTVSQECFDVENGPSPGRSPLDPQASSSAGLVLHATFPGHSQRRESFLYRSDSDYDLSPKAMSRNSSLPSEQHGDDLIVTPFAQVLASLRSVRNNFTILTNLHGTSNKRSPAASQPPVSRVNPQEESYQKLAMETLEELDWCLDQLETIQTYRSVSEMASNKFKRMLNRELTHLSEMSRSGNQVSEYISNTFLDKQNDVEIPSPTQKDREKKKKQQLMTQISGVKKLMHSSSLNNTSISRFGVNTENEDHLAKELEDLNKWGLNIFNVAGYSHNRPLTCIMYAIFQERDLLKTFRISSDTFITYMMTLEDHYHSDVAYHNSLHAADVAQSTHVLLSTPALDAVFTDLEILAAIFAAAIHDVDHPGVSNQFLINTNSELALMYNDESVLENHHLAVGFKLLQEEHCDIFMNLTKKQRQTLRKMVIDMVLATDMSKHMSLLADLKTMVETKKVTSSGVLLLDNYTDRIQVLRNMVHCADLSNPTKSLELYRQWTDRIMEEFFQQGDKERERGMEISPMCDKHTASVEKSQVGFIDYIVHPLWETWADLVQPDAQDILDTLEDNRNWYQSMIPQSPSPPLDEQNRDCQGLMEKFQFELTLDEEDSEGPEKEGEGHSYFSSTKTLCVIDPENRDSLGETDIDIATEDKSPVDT
# Sequence of UniProt Q9HAZ1 (Q9HAZ1 whole entry, looked up): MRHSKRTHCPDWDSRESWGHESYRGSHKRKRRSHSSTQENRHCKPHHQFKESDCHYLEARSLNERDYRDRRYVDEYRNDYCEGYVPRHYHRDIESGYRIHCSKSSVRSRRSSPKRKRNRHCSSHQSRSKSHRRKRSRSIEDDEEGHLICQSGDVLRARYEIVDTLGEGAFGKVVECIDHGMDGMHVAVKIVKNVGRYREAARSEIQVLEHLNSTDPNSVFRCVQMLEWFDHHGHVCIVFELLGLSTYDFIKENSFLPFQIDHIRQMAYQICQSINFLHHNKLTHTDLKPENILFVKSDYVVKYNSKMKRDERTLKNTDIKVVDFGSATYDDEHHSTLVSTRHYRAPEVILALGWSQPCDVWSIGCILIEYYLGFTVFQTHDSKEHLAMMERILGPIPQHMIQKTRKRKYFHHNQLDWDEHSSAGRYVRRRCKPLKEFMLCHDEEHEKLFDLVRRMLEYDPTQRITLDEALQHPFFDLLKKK
# Sequence of UniProt P33261 (P33261 whole entry, looked up, canonical isoform): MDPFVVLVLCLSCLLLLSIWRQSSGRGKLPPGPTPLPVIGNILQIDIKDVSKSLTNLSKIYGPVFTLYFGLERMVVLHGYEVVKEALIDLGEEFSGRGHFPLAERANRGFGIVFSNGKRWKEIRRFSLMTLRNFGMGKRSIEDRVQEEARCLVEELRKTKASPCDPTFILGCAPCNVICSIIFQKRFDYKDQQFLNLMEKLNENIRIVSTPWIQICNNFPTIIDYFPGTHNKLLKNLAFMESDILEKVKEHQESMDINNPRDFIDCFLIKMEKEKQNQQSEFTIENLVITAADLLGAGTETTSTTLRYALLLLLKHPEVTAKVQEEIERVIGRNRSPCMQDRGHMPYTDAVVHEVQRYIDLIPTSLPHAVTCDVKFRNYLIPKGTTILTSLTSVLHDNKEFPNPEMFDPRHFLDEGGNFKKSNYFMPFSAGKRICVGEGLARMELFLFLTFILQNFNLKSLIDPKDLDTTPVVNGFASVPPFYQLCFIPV
# Sequence of UniProt P11712 (P11712 whole entry, looked up): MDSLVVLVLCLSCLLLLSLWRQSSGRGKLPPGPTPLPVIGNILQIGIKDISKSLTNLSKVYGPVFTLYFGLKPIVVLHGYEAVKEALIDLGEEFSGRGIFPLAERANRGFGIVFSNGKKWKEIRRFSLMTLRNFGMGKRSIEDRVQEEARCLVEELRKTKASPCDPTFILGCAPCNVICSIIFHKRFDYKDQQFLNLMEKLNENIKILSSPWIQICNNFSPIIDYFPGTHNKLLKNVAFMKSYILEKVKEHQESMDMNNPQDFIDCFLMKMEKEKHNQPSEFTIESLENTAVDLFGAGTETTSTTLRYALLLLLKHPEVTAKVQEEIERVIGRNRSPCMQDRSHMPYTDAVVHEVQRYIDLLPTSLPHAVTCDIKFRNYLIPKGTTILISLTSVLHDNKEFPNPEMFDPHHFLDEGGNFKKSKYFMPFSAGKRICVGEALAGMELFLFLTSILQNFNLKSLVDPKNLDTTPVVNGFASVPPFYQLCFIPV
# Sequence of UniProt P05177 (P05177 whole entry, looked up): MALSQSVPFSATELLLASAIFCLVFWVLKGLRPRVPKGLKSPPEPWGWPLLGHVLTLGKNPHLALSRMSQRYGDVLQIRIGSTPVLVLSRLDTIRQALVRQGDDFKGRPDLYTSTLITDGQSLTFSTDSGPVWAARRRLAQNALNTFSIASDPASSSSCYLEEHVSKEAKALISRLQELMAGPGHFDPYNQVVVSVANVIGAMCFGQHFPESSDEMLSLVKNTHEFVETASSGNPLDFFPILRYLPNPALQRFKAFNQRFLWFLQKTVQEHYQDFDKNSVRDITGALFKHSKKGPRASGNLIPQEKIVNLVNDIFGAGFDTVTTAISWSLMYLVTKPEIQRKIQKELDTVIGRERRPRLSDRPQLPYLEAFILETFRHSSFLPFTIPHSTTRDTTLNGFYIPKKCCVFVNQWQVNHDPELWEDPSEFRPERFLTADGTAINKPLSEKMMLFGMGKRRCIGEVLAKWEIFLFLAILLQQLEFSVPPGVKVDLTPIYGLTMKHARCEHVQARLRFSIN
# Sequence of UniProt O75469 (O75469 whole entry, looked up): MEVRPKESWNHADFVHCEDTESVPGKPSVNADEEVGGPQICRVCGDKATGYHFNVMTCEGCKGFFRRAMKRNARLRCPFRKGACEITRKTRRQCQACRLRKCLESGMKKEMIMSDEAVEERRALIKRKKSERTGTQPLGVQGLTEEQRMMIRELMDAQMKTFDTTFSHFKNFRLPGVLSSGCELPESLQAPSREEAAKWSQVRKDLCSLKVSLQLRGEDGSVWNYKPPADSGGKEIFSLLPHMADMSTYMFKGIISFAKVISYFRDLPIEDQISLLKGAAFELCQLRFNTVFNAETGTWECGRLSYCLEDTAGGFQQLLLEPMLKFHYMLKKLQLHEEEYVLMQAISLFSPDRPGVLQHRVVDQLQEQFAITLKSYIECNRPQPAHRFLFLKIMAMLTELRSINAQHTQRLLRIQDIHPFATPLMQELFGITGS
# Sequence of UniProt P36969 (P36969 whole entry, looked up): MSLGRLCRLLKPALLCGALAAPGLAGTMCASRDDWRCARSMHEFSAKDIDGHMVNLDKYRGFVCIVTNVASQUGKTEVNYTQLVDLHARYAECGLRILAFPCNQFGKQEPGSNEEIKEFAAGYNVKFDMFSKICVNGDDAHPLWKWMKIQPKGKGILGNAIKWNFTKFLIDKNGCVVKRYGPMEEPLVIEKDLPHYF
smiles,measurement,setting,value
COc1cccc(-c2cc(NCc3ccccc3)ncn2)c1,Potency,[1],"inconclusive: 12.6 µM [activator, partial curve]"
same,Potency,[2],"inconclusive: 1 µM [activator, single point]"
same,Potency,[3],active: 28.2 µM
CC(C)[C@H](C)CC[C@@H](C)[C@H]1CC[C@H]2[C@@H]3CC=C4C[C@@H](O)CC[C@]4(C)[C@H]3CC[C@]12C,Potency,[4],inactive
same,Potency,[5],inactive
same,Potency,[6],inactive
CC(C)=CCC[C@](C)(OC1OC(COC2OCC(O)C(O)C2O)C(O)C(O)C1O)[C@H]1CC[C@]2(C)[C@@H]1[C@H](O)C[C@@H]1[C@@]3(C)CC[C@H](OC4OC(CO)C(O)C(O)C4OC4OC(CO)C(O)C(O)C4O)C(C)(C)[C@@H]3CC[C@]12C (stereo not given in full),Potency,[7],"inconclusive: 35.5 µM [activator, single point]"
same,Potency,[4],inactive
same,Potency,[8],inactive
CCCCCC/C=C\CCCCCCCC(=O)O,Potency,[9],inactive
same,Potency,[10],active: 14.1 µM
same,Potency,[11],"inconclusive: 25.1 µM [inhibitor, partial curve]"
same,Potency,[12],"inconclusive: 28.2 µM [inhibitor, partial curve]"
COc1ccc(-c2coc3cc(O[C@@H]4O[C@H](CO)[C@@H](O)[C@H](O)[C@H]4O)ccc3c2=O)cc1,Potency,[4],active: 11.2 µM
same,Potency,[13],"inconclusive: 25.1 µM [inhibitor, partial curve, poor fit]"
